Experimental data: PMC9911399, “Two distinct binding modes provide the RNA-binding protein RbFox with extraordinary sequence specificity”
Numbering of substitutions follows the chain as printed; changes in the protein carry UniProt numbers. Some of the results follow.

T1: RBFOX1 RRM RbFoxmut (Fox-RRM*) (Homo sapiens, UniProt Q9NWB1 109-208, R118D;E147R;N151S;E152T)
T1 sequence: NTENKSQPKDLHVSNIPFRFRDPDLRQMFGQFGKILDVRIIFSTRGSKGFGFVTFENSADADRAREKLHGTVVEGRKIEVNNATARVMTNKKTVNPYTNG

B1: UUGGCAC (DNA:RNA)
RNA: GGGAGACCGGAAUUCAGAUUGUCCUUGGCACUUAAAUCCCGUCGUAGCCACCA
DNA 1: CAATCTGAATTCCGGTCTCCC
DNA 2: TGGTGGCTACGACGGGATT
B2: GAACAUU (DNA:RNA)
RNA: GGGAGACCGGAAUUCAGAUUGUCCGAACAUUUUAAAUCCCGUCGUAGCCACCA
DNA 1: CAATCTGAATTCCGGTCTCCC
DNA 2: TGGTGGCTACGACGGGATT
B3: CCGAGGU (DNA:RNA)
RNA: B2 RNA with G25C, A26C, A27G, C28A, A29G, U30G
DNA 1: CAATCTGAATTCCGGTCTCCC
DNA 2: TGGTGGCTACGACGGGATT
B4: AAAUCAA (DNA:RNA)
RNA: B2 RNA with G25A, C28U, A29C, U30A, U31A
DNA 1: CAATCTGAATTCCGGTCTCCC
DNA 2: TGGTGGCTACGACGGGATT
B5: GGGGUCG (DNA:RNA)
RNA: B1 RNA with U25G, U26G, C29U, A30C, C31G
DNA 1: CAATCTGAATTCCGGTCTCCC
DNA 2: TGGTGGCTACGACGGGATT
B6: AACAGGG (DNA:RNA)
RNA: B2 RNA with G25A, A27C, C28A, A29G, U30G, U31G
DNA 1: CAATCTGAATTCCGGTCTCCC
DNA 2: TGGTGGCTACGACGGGATT
B7: GUCACAU (DNA:RNA)
RNA: B1 RNA with U25G, G27C, G28A, C31U
DNA 1: CAATCTGAATTCCGGTCTCCC
DNA 2: TGGTGGCTACGACGGGATT
B8: CUGAUUU (DNA:RNA)
RNA: B2 RNA with G25C, A26U, A27G, C28A, A29U
DNA 1: CAATCTGAATTCCGGTCTCCC
DNA 2: TGGTGGCTACGACGGGATT
B9: CAAUGAC (DNA:RNA)
RNA: B2 RNA with G25C, C28U, A29G, U30A, U31C
DNA 1: CAATCTGAATTCCGGTCTCCC
DNA 2: TGGTGGCTACGACGGGATT
B10: GUAAGCA (DNA:RNA)
RNA: B2 RNA with A26U, C28A, A29G, U30C, U31A
DNA 1: CAATCTGAATTCCGGTCTCCC
DNA 2: TGGTGGCTACGACGGGATT
B11: CAAGUUA (DNA:RNA)
RNA: B2 RNA with G25C, C28G, A29U, U31A
DNA 1: CAATCTGAATTCCGGTCTCCC
DNA 2: TGGTGGCTACGACGGGATT
B12: UCGUUUA (DNA:RNA)
RNA: B1 RNA with U26C, G28U, C29U, A30U, C31A
DNA 1: CAATCTGAATTCCGGTCTCCC
DNA 2: TGGTGGCTACGACGGGATT
B13: UUAUUCU (DNA:RNA)
RNA: B2 RNA with G25U, A26U, C28U, A29U, U30C
DNA 1: CAATCTGAATTCCGGTCTCCC
DNA 2: TGGTGGCTACGACGGGATT
B14: CUCGCAA (DNA:RNA)
RNA: B1 RNA with U25C, G27C, C31A
DNA 1: CAATCTGAATTCCGGTCTCCC
DNA 2: TGGTGGCTACGACGGGATT
B15: ACUCUCA (DNA:RNA)
RNA: B2 RNA with G25A, A26C, A27U, A29U, U30C, U31A
DNA 1: CAATCTGAATTCCGGTCTCCC
DNA 2: TGGTGGCTACGACGGGATT
B16: UUAAGCU (DNA:RNA)
RNA: B2 RNA with G25U, A26U, C28A, A29G, U30C
DNA 1: CAATCTGAATTCCGGTCTCCC
DNA 2: TGGTGGCTACGACGGGATT
B17: CUCGUUG (DNA:RNA)
RNA: B1 RNA with U25C, G27C, C29U, A30U, C31G
DNA 1: CAATCTGAATTCCGGTCTCCC
DNA 2: TGGTGGCTACGACGGGATT
B18: GGCGAAU (DNA:RNA)
RNA: B2 RNA with A26G, A27C, C28G, U30A
DNA 1: CAATCTGAATTCCGGTCTCCC
DNA 2: TGGTGGCTACGACGGGATT
B19: CUGUGAG (DNA:RNA)
RNA: B1 RNA with U25C, G28U, C29G, C31G
DNA 1: CAATCTGAATTCCGGTCTCCC
DNA 2: TGGTGGCTACGACGGGATT
B20: UUGCUUC (DNA:RNA)
RNA: B1 RNA with G28C, C29U, A30U
DNA 1: CAATCTGAATTCCGGTCTCCC
DNA 2: TGGTGGCTACGACGGGATT
B21: UAUCCGA (DNA:RNA)
RNA: B2 RNA with G25U, A27U, A29C, U30G, U31A
DNA 1: CAATCTGAATTCCGGTCTCCC
DNA 2: TGGTGGCTACGACGGGATT
B22: AGCUGGG (DNA:RNA)
RNA: GGGAGACCGGAAUUCAGAUUGUCCAGCUGGGUUAAAUCCCGUCGUAGCCACCA
DNA 1: CAATCTGAATTCCGGTCTCCC
DNA 2: TGGTGGCTACGACGGGATT
B23: CUGUGCA (DNA:RNA)
RNA: B22 RNA with A25C, G26U, C27G, G30C, G31A
DNA 1: CAATCTGAATTCCGGTCTCCC
DNA 2: TGGTGGCTACGACGGGATT
B24: UGCCCUA (DNA:RNA)
RNA: B22 RNA with A25U, U28C, G29C, G30U, G31A
DNA 1: CAATCTGAATTCCGGTCTCCC
DNA 2: TGGTGGCTACGACGGGATT
B25: CAGUGUU (DNA:RNA)
RNA: B2 RNA with G25C, A27G, C28U, A29G
DNA 1: CAATCTGAATTCCGGTCTCCC
DNA 2: TGGTGGCTACGACGGGATT
B26: ACUUCAC (DNA:RNA)
RNA: B1 RNA with U25A, U26C, G27U, G28U
DNA 1: CAATCTGAATTCCGGTCTCCC
DNA 2: TGGTGGCTACGACGGGATT
B27: AUAGAUA (DNA:RNA)
RNA: B2 RNA with G25A, A26U, C28G, U31A
DNA 1: CAATCTGAATTCCGGTCTCCC
DNA 2: TGGTGGCTACGACGGGATT
B28: GGAUUUA (DNA:RNA)
RNA: B2 RNA with A26G, C28U, A29U, U31A
DNA 1: CAATCTGAATTCCGGTCTCCC
DNA 2: TGGTGGCTACGACGGGATT
B29: CCUUCAG (DNA:RNA)
RNA: B22 RNA with A25C, G26C, C27U, G29C, G30A
DNA 1: CAATCTGAATTCCGGTCTCCC
DNA 2: TGGTGGCTACGACGGGATT
B30: ACGGGCU (DNA:RNA)
RNA: B22 RNA with G26C, C27G, U28G, G30C, G31U
DNA 1: CAATCTGAATTCCGGTCTCCC
DNA 2: TGGTGGCTACGACGGGATT
B31: CGAGCCC (DNA:RNA)
RNA: B1 RNA with U25C, U26G, G27A, A30C
DNA 1: CAATCTGAATTCCGGTCTCCC
DNA 2: TGGTGGCTACGACGGGATT

What follows are binders tested against T1, RBFOX1 RRM RbFoxmut (Fox-RRM*) (assay: EMSA; HiTS-Eq, 1 nM pool, 10 min; buffer printed only for the single-RNA assays: 10 mM Tris pH 7.5, 150 mM NaCl, 3.4 mM EDTA, 0.001% NP-40, 30 C). Details: tags: His6 N-terminal (pET28a); label: 5' 32P.
Summary of the method: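 Purified RbFox RRM (wild type or mutant) was equilibrated for 10 min in 50 µL with 1 nM of a 5′-radiolabelled pool of RNA with 7 randomized nucleotides, its flanks annealed to DNA oligonucleotides, across increasing protein concentrations. Free RNA was separated by 8% native PAGE, excised, reverse-transcribed, PCR-barcoded and sequenced on an Illumina HiSeq 2500. Relative association constants came from read-count changes of each variant against the control reaction, normalised to the cognate motif.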

First: B1
Second: B2
The binding signal of the first is higher: 0.095 KA relative to UGCAUGU for the first, 0.0738 KA relative to UGCAUGU for the second.

First: B3
Second: B4
The binding signal of the first is higher: 0.0981 KA relative to UGCAUGU for the first, 0.0761 KA relative to UGCAUGU for the second.

First: B5
Second: B6
The binding signal of the first is higher: 0.357 KA relative to UGCAUGU for the first, 0.0834 KA relative to UGCAUGU for the second.

First: B7
Second: B8
The binding signal of the first is higher: 0.0871 KA relative to UGCAUGU for the first, 0.0834 KA relative to UGCAUGU for the second.

Compared with B9, B10 is higher in binding signal: 0.11 KA relative to UGCAUGU for the first, 0.129 KA relative to UGCAUGU for the second.

Compared with B11, B12 is higher in binding signal: 0.141 KA relative to UGCAUGU for the first, 0.163 KA relative to UGCAUGU for the second.

Compared with B13, B14 is lower in binding signal: 0.091 KA relative to UGCAUGU for the first, 0.0789 KA relative to UGCAUGU for the second.

Compared with B15, B16 is lower in binding signal: 0.118 KA relative to UGCAUGU for the first, 0.0881 KA relative to UGCAUGU for the second.

First: B17
Second: B18
The binding signal of the first is higher: 0.151 KA relative to UGCAUGU for the first, 0.107 KA relative to UGCAUGU for the second.

Compared with B19, B20 is higher in binding signal: 0.121 KA relative to UGCAUGU for the first, 0.157 KA relative to UGCAUGU for the second.

First: B21
Second: B22
The binding signal of the first is higher: 0.0934 KA relative to UGCAUGU for the first, 0.0929 KA relative to UGCAUGU for the second.

First: B23
Second: B24
The binding signal of the first is higher: 0.226 KA relative to UGCAUGU for the first, 0.103 KA relative to UGCAUGU for the second.

Compared with B25, B26 is lower in binding signal: 0.122 KA relative to UGCAUGU for the first, 0.0914 KA relative to UGCAUGU for the second.

First: B27
Second: B28
The binding signal of the first is higher: 0.126 KA relative to UGCAUGU for the first, 0.0995 KA relative to UGCAUGU for the second.

Compared with B29, B30 is lower in binding signal: 0.114 KA relative to UGCAUGU for the first, 0.106 KA relative to UGCAUGU for the second.

With B31 the binding signal was 0.0568 KA relative to UGCAUGU.
